Source: publication PMC12784331, “Inhibiting Disulfide Bonding in Truncated Tau297–391 Results in Enhanced Self-Assembly of Tau into Seed-Competent Assemblies” (ACS Chemical Neuroscience, 2025)

Tests used:
[1] = target: the molecule itself; experiment: non-reducing SDS-PAGE; 400 uM in 10 mM PB without DTT, 37 °C, 400 rpm; whole assembly mixture sampled at 0 h to 7 days, Laemmli buffer without BME, Coomassie; SDS-soluble species
[2] = target: Tau RD P301S (repeat domain of tau with P301S, CFP- or YFP-tagged) of Tau RD P301S FRET Biosensor cells; experiment: cell-based or functional assay

B1: dGAE-C322A (domain or fragment)
chain: not shown
notes: Tau protein, […] (dGAE) with C322A; Substitution of the only cysteine residue of dGAE; also called C322A dGAE; source: E. coli BL21, purified (boiling, HiTrap SP Sepharose)
stoichiometry N [1]: 2 | punctate fluorescence in tau Biosensor cells after 3 days with 10 uM dGAE-C322A fibrils (DSB(−)) [2]: 9.82 relative to control (control 1.00) | punctate fluorescence in tau Biosensor cells after 3 days with 10 uM sonicated dGAE-C322A fibrils (DSB(−)) [2]: 51.1 relative to control (control 1.00)
